Laboratory results from the supplement of paper PMC8728848.
This is one part of the list.

Tests used:
Assay in all cases: glycan array binding signal (z-score within array); higher = stronger binding
Settings in all cases: glycan notation: IUPAC condensed, linker removed
[1] = target: Gal(b1-4)GlcNAc(b1-3)Gal(b1-4)GlcNAc(b1-6)[Gal(b1-3)]GalNAc
Outline: (§1)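 From the Consortium for Functional Glycomics database, 3228 arrays were curated, keeping only those whose protein sequence was available. Binding is given as a within-array Z-score averaged across arrays sharing a protein sequence and across linkers. Negative Z-scores can be read as non-binding.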

[2] = target: Gal(b1-4)GlcNAc(b1-3)Gal(b1-4)[Fuc(a1-3)]GlcNAc(b1-3)Gal(b1-4)[Fuc(a1-3)]GlcNAc
Outline: as §1

[3] = target: Gal(b1-4)GlcNAc(b1-3)GalNAc
Outline: as §1

[4] = target: Gal(b1-4)GlcNAc(b1-3)[Fuc(a1-3)GlcNAc(b1-6)]Gal(b1-4)Glc
Outline: as §1

[5] = target: Gal(b1-4)GlcNAc(b1-3)[Gal(b1-4)GlcNAc(b1-6)]Gal(b1-4)GlcNAc
Outline: as §1

[6] = target: Gal(b1-4)GlcNAc(b1-3)[GlcNAc(b1-6)]Gal(b1-4)GlcNAc
Outline: as §1

[7] = target: Gal(b1-4)GlcNAc(b1-6)Gal(b1-4)GlcNAc
Outline: as §1

[8] = target: Gal(b1-4)GlcNAc(b1-6)GalNAc
Outline: as §1

[9] = target: Gal(b1-4)GlcNAc(b1-6)[Gal(b1-3)]GalNAc
Outline: as §1

[10] = target: Gal(b1-4)GlcNAc(b1-6)[Gal(b1-4)GlcNAc(b1-3)]GalNAc
Outline: as §1

[11] = target: Gal(b1-4)GlcNAc6P
Outline: as §1

[12] = target: Gal(b1-6)Gal
Outline: as §1

[13] = target: Gal3S(b1-3)GalNAc
Outline: as §1

[14] = target: Gal3S(b1-3)GlcNAc
Outline: as §1

[15] = target: Gal3S(b1-3)[Fuc(a1-4)]GlcNAc
Outline: as §1

[16] = target: Gal3S(b1-4)Glc
Outline: as §1

[17] = target: Gal3S(b1-4)Glc6S
Outline: as §1

[18] = target: Gal3S(b1-4)GlcNAc
Outline: as §1

[19] = target: Gal3S(b1-4)[Fuc(a1-3)]Glc6S
Outline: as §1

[20] = target: Gal3S(b1-4)[Fuc(a1-3)]GlcNAc
Outline: as §1

[21] = target: Gal3S(b1-4)[Fuc(a1-3)]GlcNAc6S
Outline: as §1

[22] = target: Gal3S4S(b1-4)GlcNAc
Outline: as §1

[23] = target: Gal3S6S(b1-4)GlcNAc
Outline: as §1

[24] = target: Gal3S6S(b1-4)GlcNAc6S
Outline: as §1

[25] = target: Gal4S(b1-4)GlcNAc
Outline: as §1

[26] = target: Gal4S6S(b1-4)GlcNAc
Outline: as §1

[27] = target: Gal6P(b1-4)GlcNAc
Outline: as §1

[28] = target: Gal6S(b1-3)GlcNAc
Outline: as §1

[29] = target: Gal6S(b1-3)GlcNAc6S
Outline: as §1

[30] = target: Gal6S(b1-4)Glc
Outline: as §1

[31] = target: Gal6S(b1-4)Glc6S
Outline: as §1

[32] = target: Gal6S(b1-4)GlcNAc
Outline: as §1

[33] = target: Gal6S(b1-4)GlcNAc6S
Outline: as §1

[34] = target: GalNAc(a1-3)Gal
Outline: as §1

[35] = target: GalNAc(a1-3)GalNAc
Outline: as §1

[36] = target: GalNAc(a1-3)GalNAc(b1-3)Gal(a1-4)Gal(b1-4)Glc
Outline: as §1

[37] = target: GalNAc(a1-3)GalNAc(b1-3)Gal(a1-4)Gal(b1-4)GlcNAc
Outline: as §1

B1: PX15618B-bfa-464-25-464 (Bacteroides fragilis) (protein)
chain: DQEPPLYVNENDIFTSPTRIEATLNGLYAAIKNTGTKSLMGGKSYLVFDNRGDDVINISNNLVTLFNTYNMNVGITDAENADTWTYAYLAINKVNTFLQSLEGAREVAGENYDRYVQEAKFVRALAYYYLNNLYPTPYSVNPDAKSVPLRLTAEAGTENNNMPRSTVKQIYEHILSDLENISALDTEVNTYTGVTHATQAAANMLKMRVYMAMNEWDKAITAGELVTGYSLPEDVTLIYKAPYFSQESIFSLPMADTNIPNTQQSLAEYYYDGKIMLIDTKSGIMSKPDYSLATDKRIIAFKGEKDLLMKFTDAKTKLQWVPIFRYAETLLDLAECYANKAGGEATAKSLLKQVRGRSVDAATDPLNIDNLSGDALKEAIYNEKRLEFIGEGIRGIDIMRRGEHFIKVGENETINVGPSDEKYTWPIPQVELLLNKDINK
- glycan array binding signal (z-score) [1]: 0.36
- glycan array binding signal (z-score) [2]: 0.289
- glycan array binding signal (z-score) [3]: -0.204
- glycan array binding signal (z-score) [4]: 0.311
- glycan array binding signal (z-score) [5]: -0.16
- glycan array binding signal (z-score) [6]: -0.037
- glycan array binding signal (z-score) [7]: 0.086
- glycan array binding signal (z-score) [8]: 0.074
- glycan array binding signal (z-score) [9]: -0.268
- glycan array binding signal (z-score) [10]: 0.491
- glycan array binding signal (z-score) [11]: -0.626
- glycan array binding signal (z-score) [12]: -0.172
- glycan array binding signal (z-score) [13]: -0.122
- glycan array binding signal (z-score) [14]: -0.126
- glycan array binding signal (z-score) [15]: -0.397
- glycan array binding signal (z-score) [16]: 0.162
- glycan array binding signal (z-score) [17]: -0.055
- glycan array binding signal (z-score) [18]: -0.305
- glycan array binding signal (z-score) [19]: 0.38
- glycan array binding signal (z-score) [20]: 0.137
- glycan array binding signal (z-score) [21]: 0.421
- glycan array binding signal (z-score) [22]: -0.294
- glycan array binding signal (z-score) [23]: 0.078
- glycan array binding signal (z-score) [24]: -0.475
- glycan array binding signal (z-score) [25]: -0.483
- glycan array binding signal (z-score) [26]: -0.852
- glycan array binding signal (z-score) [27]: -0.53
- glycan array binding signal (z-score) [28]: -0.328
- glycan array binding signal (z-score) [29]: -0.297
- glycan array binding signal (z-score) [30]: -0.133
- glycan array binding signal (z-score) [31]: 0.521
- glycan array binding signal (z-score) [32]: -0.779
- glycan array binding signal (z-score) [33]: -0.259
- glycan array binding signal (z-score) [34]: -0.083
- glycan array binding signal (z-score) [35]: -0.504
- glycan array binding signal (z-score) [36]: -0.638
- glycan array binding signal (z-score) [37]: -0.273
